{"source": "paper PMC12136788", "binders": {"B1": {"name": "chr1:39494564:39494565:+_ENSG00000168653_ENST00000372967|hu_hu|hu_hu_hu_mus_True|1_58 (ssRNA)", "RNA": "GGGAGUUCUACAGUCCGACGAUCAUGCAUUCGCCUCAUCGUUUUGUACCGAAGCAAGCACUCUUCGAAGUCAUCGAAUUCUAUCUUGCACUCCUUUUUCGCCCGGGUCCCACCGAUCCCGUGUGCACACUCUAUCCAUUCUUUCAACAGAGGAUUGAGCAUCA"}, "B2": {"name": "33966644_33966764_1915_CDS_ENSG00000006125_ENST00000262325|human|control|control (ssRNA)", "RNA": "GGGAGUUCUACAGUCCGACGAUCGUGAAAACCCUCCAGGAAGCUUUCUAGUAACUCAUCUGCAUUGUCAAUUCUUUCAGCAUAUUCUCCCACAAUCCAAAUCAUAGCUGCUCGAGCAUCUGGCUCAUCCAGCGAGUCUAAGUUCAACAGAGGAUUGAGCAUCA"}, "B3": {"name": "chr18:67804014:67804015:+_ENSMUSG00000024537_ENSMUST00000025418|mus_mus|FALSE|FALSE (ssRNA)", "RNA": "GGGAGUUCUACAGUCCGACGAUCGCAAUCAGUAUAGAAAUAACCAAUCUUACACAUGUUCAGUGUAGAAAUAAUCAGAUCUAUUGCAAGCUGGCCAACAUUUCCAACGGAUACUGCUGGCAUCAGGAGUGUAAAGUUCGUUAGCAACAGAGGAUUGAGCAUCA"}, "B4": {"name": "chr4:115894766:115894767:+_ENSMUSG00000028698_ENSMUST00000030464|mus_hu|mus_mus_mus_hu_True|1_38 (ssRNA)", "RNA": "GGGAGUUCUACAGUCCGACGAUCUUCCACACGGAAAUGUACUUCGGGUUUUCCAACGGCCAGUACCAGUCCGGCCAAACUACCCGAACAGGGUCCUGUCCUCCUCUCCUACAGAACACAACAAAAUGCCCCCGAACCCCGAACCAACAGAGGAUUGAGCAUCA"}, "B5": {"name": "12266551_12270795_3497_CDS_ENSMUSG00000064127_ENSMUST00000096495|mouse|control|control (ssRNA)", "RNA": "GGGAGUUCUACAGUCCGACGAUCAGCCCCACUGGGGGAGCUGGCAGCAUGCAGAUUUCCUGGAGACUGUGUGUGCAUCAUAGAGGGGGACUGAUUAACUGUGCUGUGAUAGGAUGUAGGGGGUGAAGUAAGAGGGUAAGCGCCCAACAGAGGAUUGAGCAUCA"}, "B6": {"name": "178301539_178301754_695_CDS_ENSG00000018510_ENST00000264167|human|control|control (ssRNA)", "RNA": "GGGAGUUCUACAGUCCGACGAUCCUCAAACAUUCCUUCCCUGAGCAAAAAUAUCUCAUGAAGACAAUGACCAUGAGCUCUAAAUACUCGAUCAUCUGCCUCUUGUGAAUAUGAAAUAUUAGUUUCUUUAAGGUCAUGAAGAAACAACAGAGGAUUGAGCAUCA"}, "B7": {"name": "chr5:36862001:36862002:-_ENSMUSG00000029192_ENSMUST00000171385|mus_hu|FALSE|FALSE (ssRNA)", "RNA": "GGGAGUUCUACAGUCCGACGAUCAAUGGCUAAGCUCCAGACUUUGCCUCUCACACUUGGAGGGAUUCCCUGCCACCAUAAAUCUCGAACUUUUCUAGAGCACCACAUUGUUUCCCAGUUAGGUAAGAUCUCAUUAUUCCAGGUCAACAGAGGAUUGAGCAUCA"}, "B8": {"name": "chr2:47387770:47387771:-_ENSG00000143933_ENST00000272298|hu_mus|hu_hu_hu_mus_True|8_8 (ssRNA)", "RNA": "GGGAGUUCUACAGUCCGACGAUCAAGGUUUAAGGACAAUGACAGUAAGAUAAGGGAAGAAAACAUGGAGGAAUGAAGUCCUAAUUACUAUACAUGCAUAUUUUUUGACAGUAGGGGGGGGGAACCUUACAGAUAAGAGUUACACAACAGAGGAUUGAGCAUCA"}, "B9": {"name": "chr17:66519878:66519879:+_ENSG00000108946_ENST00000358598|hu_mus|motif|central (ssRNA)", "RNA": "GGGAGUUCUACAGUCCGACGAUCACUUCUCUCGUUAUCAUCAAGGUGUGAAAACAGCACAUUCUUUUCGAUGGCCUUGGCGGAAGCAGCCAUUGUCUUAUAAUCUUUUGGAAUAACCUUUCUAACGUAGGAGGCAGCAUCCUCCAACAGAGGAUUGAGCAUCA"}, "B10": {"name": "chr2:179515052:179515053:+_ENSMUSG00000000305_ENSMUST00000000314|mus_hu|mus_mus_mus_hu_False|58_88 (ssRNA)", "RNA": "GGGAGUUCUACAGUCCGACGAUCGCUGUCCCAUGCAGUCACCGUGAAGGCCACCUGCUCGGAGGGGACCUGCAGCUCCCUAGUGGCGAAGACUGUCCCAUCUGCCCCAACUUUGAAGUCCAUGCUGUUGGUCUCAUAUUGUGUCAACAGAGGAUUGAGCAUCA"}, "B11": {"name": "chr12:69047915:69047916:+_ENSG00000127314_ENST00000393436|hu_hu|FALSE|FALSE (ssRNA)", "RNA": "GGGAGUUCUACAGUCCGACGAUCCUGUUCUCUCAGGUCUUGUAAAUCGUUAAAUGUGGACUGUGCUGUGAUGGAAUAAACUAAUGCAAAUCCUUGUCCAUUUUUCAUGUAUAAAUCCCUCAUUGCUGUAAAUUGCUCCGUUCCCAACAGAGGAUUGAGCAUCA"}, "B12": {"name": "chr14:76904430:76904431:+_ENSMUSG00000022010_ENSMUST00000022587|mus_mus|mus_mus_mus_hu_True|68_98 (ssRNA)", "RNA": "GGGAGUUCUACAGUCCGACGAUCUGCAGCCAAAAACAGAGAGAGGGAAAAAAAGAGGGAACACCAGCAGCCUGGUUUAAGCUAGAUAAAAUCUUCUGGCUUUCCGCAGCCCAGGGAGAAACAGAAAACGGCAGCCCUAAUUUACAACAGAGGAUUGAGCAUCA"}, "B13": {"name": "chr12:39763582:39763583:-_ENSG00000139116_ENST00000544797|hu_mus|hu_hu_hu_mus_False|18_28 (ssRNA)", "RNA": "GGGAGUUCUACAGUCCGACGAUCCUCUAGGAACUGGGCAUUCACUUUGAAUUCAGGAGGGGGCAGCCCGUUUUUAAUCGCUGAGGUCUUUUUCUCAUCAAUACUCUUAAAAAGGUGUUUAACAGCUCGAGAGAUGAUGCCCUGCAACAGAGGAUUGAGCAUCA"}, "B14": {"name": "chr4:24541891:24541892:-_ENSG00000109606_ENST00000336812|perfect_dup|FALSE|FALSE (ssRNA)", "RNA": "GGGAGUUCUACAGUCCGACGAUCGGAUCCCAAUUCAGUCAGAUCUCCAUCAUCAUUUAAAGCAGCCAGGUAAUUCAAAAGUUCCAGGGCUCUCAUCAGAGUUUCAGGAGCUGGUGGAUCCAUAAAAUCAAAAUGUACCAAGUCCAACAGAGGAUUGAGCAUCA"}, "B15": {"name": "chr21:34922442:34922443:+_ENSG00000159140_ENST00000381679|hu_hu|FALSE|FALSE (ssRNA)", "RNA": "GGGAGUUCUACAGUCCGACGAUCCUCAGUAGGUGUCUCUGAUGAUACCACAAGGGUUUCUGAAGGCUCUAACACUUUUGCUACUGGGGGCUCUACCAACAUGAUCUUUGAUGGCUCUGGAGAUGUGCUCUCCACAGAUUUCAGCAACAGAGGAUUGAGCAUCA"}, "B16": {"name": "chr21:27062186:27062187:+_ENSG00000154721_ENST00000480456|hu_mus|FALSE|FALSE (ssRNA)", "RNA": "GGGAGUUCUACAGUCCGACGAUCUCCCACCUUCUUCCACUCCAGUCUGGAGGAGGUAGUCUUCUUUGGGGUUUUACAAGCCAAAAUAGCCUCUUGGAACUCUAUUACUGUGACUUCUUGACGGUGGUCUUUUGAUGCAGAAAACAACAGAGGAUUGAGCAUCA"}, "B17": {"name": "chr6:150114721:150114722:+_ENSG00000120265_ENST00000367380|hu_hu|motif|central (ssRNA)", "RNA": "GGGAGUUCUACAGUCCGACGAUCGUCCUUCCUGACAUUAUUUACUGAGUCAUCUACUAGCUCUUUAAUGUGAUCAAUUCCGGUGACUUUUCCAGUACAUCCAACCAUACGUGCAAAACAUGCAGUAAGGAUUCCACUUCCAGACAACAGAGGAUUGAGCAUCA"}, "B18": {"name": "120442357_120442477_4816_3pUTR_ENSG00000151893_ENST00000369151|human|control|control (ssRNA)", "RNA": "GGGAGUUCUACAGUCCGACGAUCUCACUCUAGACCCCAAAGGGAGGGUAAUUGCUGCAAAUUUGUUAAAGGGACAGAAGAAAAAGUAGCUUGUCUACAAAAUAAUGCACAAUGCAUGCAUCUGGGUUUGUGUUUCUUCUCACUCAACAGAGGAUUGAGCAUCA"}, "B19": {"name": "chr10:33214929:33214930:-_ENSG00000150093_ENST00000302278|hu_hu|hu_hu_hu_mus_True|28_88 (ssRNA)", "RNA": "GGGAGUUCUACAGUCCGACGAUCAACAAGUUCAUUGAAAAACUCUCCUUUAUUAGUAAGACUAAGCACAUUUUUGUAGCUAAAUGGGCUGGUGCAGUUUUGUUCACUUGUGCAAGGAUUUCUUAGCUUUGCUGGGGUUGUGCUCAACAGAGGAUUGAGCAUCA"}, "B20": {"name": "chr7:30889366:30889367:+_ENSMUSG00000049421_ENSMUST00000108200|mus_hu|FALSE|FALSE (ssRNA)", "RNA": "GGGAGUUCUACAGUCCGACGAUCUGAAGAAUCAAUGACUGUUCAGAGGAAAUACUUUGUUUCCUAAAUUUUCCCUCAGUCUGUCUUUUCACAGAGAAAGAUGAGACUUAACUUACAAGUCUUUCAUGUUGCGUCUUUAUCUGUCAACAGAGGAUUGAGCAUCA"}, "B21": {"name": "chr4:25749455:25749456:-_ENSG00000091490_ENST00000264868|hu_hu|hu_hu_hu_mus_False|48_58 (ssRNA)", "RNA": "GGGAGUUCUACAGUCCGACGAUCGCACUAUGACCUCUAGAAAAAUCCACAGGGGGAAAAAAUGUAAACCAAUGUACAAAGCUAUUGCCCUCCCUGCGUGUGGAGUGUUUGUCUCAAGGCUCCUUCUAGCUGCUGGAUUUGGGACAACAGAGGAUUGAGCAUCA"}, "B22": {"name": "88989066_88989186_4604_CDS_ENSMUSG00000036606_ENSMUST00000109331|mouse|control|control (ssRNA)", "RNA": "GGGAGUUCUACAGUCCGACGAUCACUGUCUGGCUUGGGCCAGCAGGAGCAGGGCUGAGUACGGUACACUUGGUCGAUGAUCUUCUCUUUGACCUGAGAGAUGGUGUCACAGUUGAGGACCUUAACCGGGAUGGCAUCGAUCCCCAACAGAGGAUUGAGCAUCA"}}, "note": "This is one part of the list."}
{"biological_target": "T1, UNK ZnF1-3 (human, UniProt Q9C0B0 31-174)", "T1 sequence": "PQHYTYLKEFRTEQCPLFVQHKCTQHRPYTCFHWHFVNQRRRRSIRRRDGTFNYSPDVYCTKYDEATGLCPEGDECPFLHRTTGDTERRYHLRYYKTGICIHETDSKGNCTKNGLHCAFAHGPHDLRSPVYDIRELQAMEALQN", "experiment": "nsRBNS (natural sequence RNA bind-n-seq); RBNS binding buffer (assumed for nsRBNS): 25 mM Tris pH 7.5, 150 mM KCl, 3 mM MgCl2, 0.01% Triton X-100, 500 ug/ml BSA, 20 U/ml SUPERase-In, 4 C; UNK is unkempt and MSI1 is Musashi-1; names of the RNAs are library labels; protein concentration not given here; high values mean tight binding", "units": {"binding signal": "enrichment R"}}
{"binder": "B1", "binding signal": 0.694}
{"binder": "B2", "binding signal": 1.07}
{"binder": "B3", "binding signal": 0.804}
{"binder": "B4", "binding signal": 1.11}
{"binder": "B5", "binding signal": 2.54}
{"binder": "B6", "binding signal": 1}
{"binder": "B7", "binding signal": 1.16}
{"binder": "B8", "binding signal": 2.53}
{"binder": "B9", "binding signal": 0.998}
{"binder": "B10", "binding signal": 0.823}
{"binder": "B11", "binding signal": 1.12}
{"binder": "B12", "binding signal": 3.22}
{"binder": "B13", "binding signal": 2.43}
{"binder": "B14", "binding signal": 1.58}
{"binder": "B15", "binding signal": 0.489}
{"binder": "B16", "binding signal": 0.732}
{"binder": "B17", "binding signal": 1.06}
{"binder": "B18", "binding signal": 1.69}
{"binder": "B19", "binding signal": 0.733}
{"binder": "B20", "binding signal": 0.315}
{"binder": "B21", "binding signal": 1.17}
{"binder": "B22", "binding signal": 1.26}
